For 113 compounds, z-score results are on record in PubChem BioAssay AID488969 (Vanderbilt High Throughput Screening Facility, 2010).

In all, about 110,000 compounds were measured (“z-score”: median about -0.1, highest 2% from about 2 on). The list shows a part of the results. The source made the active and inactive calls.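 Rule for the calls: active = z-score in the third read window above 3 or below -3; inactive = the rest.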

The test addresses Metabotropic glutamate receptor 8 (Rattus norvegicus) (UniProt P70579). Nature of the test: mGluR8 Gi/Go-coupled signaling modulation – cell-based, rat, thallium flux, HTS, primary screen (AID 488969). The settings on record: HEK293 rat mGluR8, GIRK (G protein-gated inwardly rectifying potassium channel) thallium flux, FluoZin2; at 10 µM; stronger effect = higher value; submaximal glutamate (EC20) added with thallium.
Chain of UniProt P70579 (P70579 whole entry, looked up): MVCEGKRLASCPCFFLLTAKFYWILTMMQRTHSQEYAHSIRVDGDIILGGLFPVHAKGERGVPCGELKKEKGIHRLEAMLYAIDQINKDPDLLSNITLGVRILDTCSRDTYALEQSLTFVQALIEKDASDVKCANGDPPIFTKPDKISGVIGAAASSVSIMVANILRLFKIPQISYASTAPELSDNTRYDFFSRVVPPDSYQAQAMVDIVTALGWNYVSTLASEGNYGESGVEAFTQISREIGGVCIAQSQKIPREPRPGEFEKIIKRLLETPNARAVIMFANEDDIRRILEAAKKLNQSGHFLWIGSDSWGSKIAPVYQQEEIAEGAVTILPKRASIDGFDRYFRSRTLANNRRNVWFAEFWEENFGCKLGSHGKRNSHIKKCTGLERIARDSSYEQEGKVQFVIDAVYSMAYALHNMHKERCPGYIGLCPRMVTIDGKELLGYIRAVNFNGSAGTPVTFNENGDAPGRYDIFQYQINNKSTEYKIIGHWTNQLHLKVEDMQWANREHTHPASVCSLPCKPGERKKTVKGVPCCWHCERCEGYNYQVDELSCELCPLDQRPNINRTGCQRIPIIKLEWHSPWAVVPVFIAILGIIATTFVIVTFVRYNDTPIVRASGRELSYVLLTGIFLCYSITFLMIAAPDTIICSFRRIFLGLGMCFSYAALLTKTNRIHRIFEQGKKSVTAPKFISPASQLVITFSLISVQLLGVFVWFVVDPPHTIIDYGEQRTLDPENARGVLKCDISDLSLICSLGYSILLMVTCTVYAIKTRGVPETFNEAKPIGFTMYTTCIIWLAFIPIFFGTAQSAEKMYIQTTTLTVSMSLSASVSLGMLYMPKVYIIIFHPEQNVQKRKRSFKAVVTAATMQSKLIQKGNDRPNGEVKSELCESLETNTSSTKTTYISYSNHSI
`Cc1cccc(-n2ncc(C#N)c2-n2cccc2)c1`: the z-score is -0.397.

In turn, `O=C(Nc1ccc(N2CCCC2=O)cc1)c1cccc(F)c1` registered a z-score of -0.00633.

For the compound `O=C(Nc1ccc(Cl)c(Cl)c1)Nc1nc(-c2ccccc2)cs1`, the z-score was 0.17.

`CCN(CC)S(=O)(=O)c1ccc(NS(=O)(=O)CC23CCC(CC2=O)C3(C)C)cc1` (stereo not drawn): the z-score came to 0.106.

In turn, `O=C(Nc1cccc(Cl)c1Cl)c1ccncc1` gave a z-score of -0.155.

For `N#Cc1nc(COc2ccccc2F)oc1NCCc1ccccc1`, the z-score is -0.289.

`COC(=O)Cc1cc(=O)[nH]c(/N=C(\N)Nc2ccccc2)n1` came in with a z-score of -0.341.

Compound `O=C(c1ccc(Br)s1)N1CCCC1` returned a z-score of -0.0657.

Regarding `COc1cccc(-c2nnc(SCC(=O)Nc3ccc(OC)c(OC)c3)n2N)c1`, the z-score is -0.349.

With `COc1ccc(-n2c(C)cc(C(=O)COc3ccc(C)nc3[N+](=O)[O-])c2C)cc1`, the z-score is -0.715.

`Cc1ccc(C(=O)CSc2nnc(-c3cccnc3)n2N)cc1`: the z-score was -0.308.

`COc1cccc(/C=N/NC(=O)C(=O)N2CCCC2)c1`: the z-score was -0.0627.

With `Cc1ccc(N2C(=O)C(Cl)=C(N3CCN(C)CC3)C2=O)c(C)c1`, the z-score was -0.189.

For the compound `CCS(=O)(=O)Nc1ccc(-c2nnc(SCC(=O)c3ccc(NC(C)=O)c(OC)c3)o2)cc1`, the z-score was active: 4.64.

In the case of `Cc1noc(/C=C/c2ccco2)c1S(=O)(=O)N1CCC(C(=O)N2CCc3ccccc32)CC1`, the z-score was -0.389.

Regarding `COc1cc(OC)cc(-n2nnnc2SCC(=O)N2CCCC2)c1`, the z-score stood at 0.154.

Consider `Cn1ccnc1SC(=O)N1c2ccccc2Sc2ccccc21`, for which the z-score was -0.487.

In turn, `CCOC(=O)c1cn(Cc2cccc(C)c2)nn1` registered a z-score of -0.25.

Consider `CC(=O)NNc1cccc(Cl)n1`, for which the z-score came to 0.709.

In the case of `C/C(=N/NC(=O)OC(C)(C)C)c1ccco1`, the z-score is -0.124.

Compound `O=C(CNC(=O)COc1ccccc1)NCc1ccccc1F` returned a z-score of 0.0382.

Regarding `CCOC(=O)Cn1c(=O)oc2cc(S(=O)(=O)NCc3ccccn3)ccc21`, the z-score is -0.108.

The compound `Cc1ccc(CNC(=O)COC(=O)c2cnccn2)cc1` came in with a z-score of 0.214.

On to `COc1ccc(/C=N/n2c(-c3ccco3)nc3ccccc3c2=O)cc1`, for which the z-score is -1.17.

`CC(C)(C)c1ccccc1NC(=O)Cn1c(=O)cnc2ccccc21` showed a z-score of 0.678.

In turn, `Cc1cc2c(c(=O)n1CC1CCCO1)C(c1ccc3c(c1)OCO3)C(C#N)=C(N)O2` (stereo not drawn) came in with a z-score of -0.638.

`COc1ccc(Nc2nccc(OC)c2C#N)cc1` yielded a z-score of -0.24.

The compound `CCNc1nc(N)nc(-c2cc(Cl)ccc2OC)n1` showed a z-score of -0.253.

`O=C(CSc1ncn[nH]1)Nc1nc(-c2ccccc2)cs1`: the z-score is 0.0129.

`CCCc1cc(C(N)=O)c(NC(=O)c2ccoc2C)s1` displayed a z-score of -0.638.

`OCc1cc(CO)c(O)c(CCc2ccccc2)n1` came in with a z-score of 0.171.

As for `CCCCNC(=O)CSc1nc2ccccc2c(=O)n1Cc1ccc2c(c1)OCO2`, the z-score was 0.908.

As to `CC(C)NCC(O)Cn1c2c(c3ccccc31)CCc1c-2cnn1-c1ccccc1` (stereo not drawn), the z-score was -0.477.

As for `Cc1ccc(-c2nc(C3CCCN(S(=O)(=O)c4ccc(C(C)(C)C)cc4)C3)no2)cc1` (stereo not drawn), the z-score is -0.0931.

The compound `CC(=O)Nc1ccc(S(=O)(=O)N(C)CC(=O)NC2=NCCS2)cc1` had a z-score of 0.262.

`O=C(CCn1nnc2ccccc2c1=O)N[C@@H](Cc1ccccc1)C(=O)O` registered a z-score of 1.64.

For `CCOC(=O)N1CCC(NC(=O)c2cc3c(-c4ccc(Cl)cc4)nn(C)c3s2)CC1`, the z-score is -1.79.

Compound `O=C(CSc1nccn1-c1ccc(Cl)cc1)Nc1ccc2c(c1)OCO2` yielded a z-score of -0.00407.

`Cc1cc2c(=O)[nH]cnc2s1` yielded a z-score of -0.0786.

The compound `Clc1ccccc1CSC1=NCCCN1` gave a z-score of 0.573.

Compound `CSc1c(CC(=O)Nc2ccc(F)cc2)n(Cc2ccccc2)c2ccccc12` returned a z-score of 0.035.

In turn, `O=C(O/N=C\c1ccc(N2CCOCC2)c([N+](=O)[O-])c1)c1ccc(F)cc1` registered a z-score of -0.494.

For the compound `CCOC(=O)C(Sc1ncn[nH]1)c1ccccc1` (stereo not drawn), the z-score was -0.105.

Regarding `CC(C)Cn1c(SC(C)C(=O)Nc2ccc(N3CCOCC3)cc2)nc2ccccc21` (stereo not drawn), the z-score is -0.171.

`O=C(c1ccc(Cn2cc(Br)cn2)cc1)N1CCN(c2ccccc2)CC1` gave a z-score of -0.355.

In the case of `COC(=O)c1ccc(/C=N/OCC(=O)NC2CCCCCCC2)cc1`, the z-score was -0.201.

With `COc1ccc(CN2CCc3ccccc3C2)c(OC)c1OC`, the z-score was 0.59.

Consider `CN(C)C(=O)N1CCC(C(=O)NCc2ccc(F)cc2)CC1`, for which the z-score came out at 0.581.

In the case of `Cc1c(NC(C)c2cc(Cl)ccc2O)c(=O)n(-c2ccccc2)n1C` (stereo not drawn), the z-score was -0.253.

The compound `O=C(CC1CCCCC1)Nc1ncn[nH]1` returned a z-score of 1.11.

`CCC(Oc1ccccc1)C(=O)NCc1cccnc1` (stereo not drawn) yielded a z-score of 1.55.

In the case of `CCCCSc1nnc(-c2ccccc2)c2ccccc12`, the z-score was -0.355.

`CCOc1ccc(N2C(=O)C3Sc4[nH]c(=O)sc4C(/C=C/c4ccccc4)C3C2=O)cc1` (stereo not drawn) registered a z-score of 0.209.

With `CCOc1ccc(NC(=O)Nc2cc(C)on2)cc1`, the z-score turned out to be 0.168.

`COC(=O)Cn1c(=NC(=O)c2ccc(OC)cc2)sc2cc(OC)ccc21` yielded a z-score of -0.189.

The compound `C=CCn1c(SCC(=O)Nc2nccs2)nnc1-c1cc2cccc(OC)c2o1` returned a z-score of -0.858.

For the compound `CC(Sc1nnc(-c2cc3ccccc3o2)n1-c1ccccc1)C(=O)O` (stereo not drawn), the z-score was -0.674.

Consider `Cc1[nH]n(-c2ccccc2)c(=O)c1C(c1ccc(C(=O)O)cc1)c1c(C)[nH]n(-c2ccccc2)c1=O`, for which the z-score is -0.173.

`Cc1ccc(-c2n[nH]c(=S)n2/N=C/c2ccc(C)s2)cc1` came in with a z-score of 2.29.

As to `O=C(COC(=O)c1cnccn1)NCc1ccccc1`, the z-score turned out to be 0.135.

In turn, `CCCCC(=O)N(c1ccc(OC)cc1)C1C=CS(=O)(=O)C1` (stereo not drawn) showed a z-score of 0.251.

`COc1ccccc1CC(=O)Nc1cc(Cl)ccc1O` yielded a z-score of -0.628.

For `COc1ccccc1NC(=O)C(C)NS(=O)(=O)c1ccc(Cl)cc1` (stereo not drawn), the z-score was -0.0766.

`Cc1nc2ccccc2nc(C)c1=NOCc1ccccc1Cl` came in with a z-score of -0.097.

In turn, `CCCCC12CN3CCN(CC(C3)/C1=N\NC(=O)Nc1ccccc1)C2` yielded a z-score of 0.454.

As to `COc1cc(/C=C/C(=O)NCc2cccnc2)cc(OC)c1OC`, the z-score worked out at 1.92.

Regarding `O=C(CSc1nn(-c2ccccc2)c(=S)s1)NC(=O)NCc1ccco1`, the z-score is -0.242.

Take `CC1=C(C(=O)NCc2ccccc2)C(c2ccccc2OCC(N)=O)NC(=O)N1` (stereo not drawn): the z-score worked out at 0.226.

The compound `COCCNC(=O)CN1C(=O)CC(C)(C)S(=O)(=O)c2ccccc21` returned a z-score of 1.51.

As for `Cc1cc(Cl)ccc1NC(=O)CCCN1C(=O)CCC1=O`, the z-score is -0.47.

`O=C(NCCc1ccc(Cl)cc1)C1CCC(=O)N1Cc1ccccc1Cl` (stereo not drawn): the z-score was -0.0695.

In turn, `Cc1ccc(/C(N)=N/OC(=O)C23CC4CC(CC(C4)C2)C3)cc1` had a z-score of -0.54.

Compound `C=C(C(=O)c1ccccc1)C(C)CC(=O)c1ccccc1` (stereo not drawn) displayed a z-score of -0.524.

`CCc1cccc(CC)c1N(COC)C(=O)Cn1ccccc1=N` came in with a z-score of 1.21.

`CCOC(=O)c1cn(CC)c2cc(N3CCOCC3)c(F)cc2c1=O`: the z-score is 0.821.

`O=S(=O)(CC(O)COc1ccccc1Cl)c1ccccc1` (stereo not drawn): the z-score is -0.286.

In the case of `CNC(=O)C12CC3CC(CC(Cl)(C3)C1)C2`, the z-score is -0.127.

For the compound `COc1ccc(NC(=O)C(=O)NCCC2=CCCCC2)c(OC)c1`, the z-score is -0.33.

Compound `CCCCN(CC)C(=S)Nc1ccc2nc3n(c(=O)c2c1)CCCCC3` displayed a z-score of 0.396.

Turning to `CCOC(=O)CSc1nnc(NC(=O)c2cccc(S(=O)(=O)N3CCCCC3)c2)s1`, the z-score was -0.208.

In turn, `COC(=O)c1ccc(OC(=O)c2cccnc2)cc1` displayed a z-score of -0.0168.

Take `CCn1c(CNC(=O)c2ccc(OC)cc2)nnc1SCC(=O)c1ccccc1`: the z-score is -0.00336.

The compound `O=C(O)CCC(=O)Nc1nnc(C(F)(F)F)s1` came in with a z-score of -0.524.

Compound `O=C(N/C(=C/c1cn(-c2ccccc2)nc1-c1ccccc1)C(=O)N1CCOCC1)c1ccccc1` registered a z-score of -0.166.

With `CCC(=O)Nc1cccc(Br)c1`, the z-score came out at 0.0987.

Take `O=C(COc1ccccc1)Nc1nnc(-c2ccc3c(c2)CCCC3)o1`: the z-score is 1.27.

Take `O=C1c2ccccc2C(=O)c2c1cccc2N1CCOCC1`: the z-score is -0.78.

Take `CC1(C)CC(=O)C(/C=N/c2ncccc2C(=O)O)=C(O)C1`: the z-score is -1.37.

`NC/C(=N\O)c1ccc(Cl)cc1Cl` had a z-score of -0.295.

For `CC(=O)N1CCN(CCN=CC2=C(O)CC(C)(C)CC2=O)CC1`, the z-score was -0.0249.

`CCCc1[nH]n(-c2ccc([N+](=O)[O-])cc2)c(=O)c1C=NCCc1c[nH]c2ccccc12` showed a z-score of 0.0152.

As for `COc1ccccc1NS(=O)(=O)c1cc(NC(=O)CCC(=O)c2cccs2)ccc1Cl`, the z-score is -0.461.

The compound `Cc1ccccc1NC(=O)C1CCN(c2cc(-c3ccccc3)nc3ncnn23)CC1` came in with a z-score of -2.63.

As to `COc1ccccc1/C=C1\CCCC2=C1Nc1nnnn1C2c1ccccc1OC` (stereo not drawn), the z-score is -0.404.

`Cc1cc(NC(=O)CCC(=O)N(c2ccccc2)C(C(=O)NC2CCCCC2)c2cccs2)no1` (stereo not drawn) registered a z-score of -0.191.

Compound `O=C(CN1C(=O)C2C3C=CC(C3)C2C1=O)Nc1ccc(C(=O)O)cc1` (stereo not drawn) showed a z-score of -0.000529.

Take `CCOC(=O)c1c(NC(=O)OC)sc(C(=O)N(C)C)c1C`: the z-score stood at 0.8.

Compound `CCC(C)N=CC1=C(O)CC(c2ccccc2)CC1=O` (stereo not drawn) had a z-score of 2.05.

`CCn1cc(C(=O)NC2CCc3ccccc32)c(=O)c2ccc(C)nc21` (stereo not drawn) gave a z-score of 0.726.

Compound `CSc1ccc(C2NC(=O)c3c(sc4c3CCN(C)C4)N2)cc1` (stereo not drawn) showed a z-score of 0.138.

Compound `CN(C1=NC(=O)C(CC(=O)Nc2ccc(Br)cc2)S1)c1ccc(O)cc1` (stereo not drawn) gave a z-score of -1.5.

`O=C(Nc1cccn2ncnc12)c1ccccc1` returned a z-score of -0.00448.

The compound `Cc1ccccc1OCc1nc2ccccc2c(=O)n1/N=C/c1cccc([N+](=O)[O-])c1` showed a z-score of -0.0563.

For the compound `Cc1cccc(N2CCN(S(=O)(=O)c3ccc4c(c3)CCN4C(=O)CCC(=O)O)CC2C)c1` (stereo not drawn), the z-score is -0.0853.

In turn, `CC(=O)NC(Cc1ccc(C)cc1)C(=O)NC1CCN(C(=O)c2cnccn2)CC1` (stereo not drawn) gave a z-score of 0.0734.

In the case of `Cc1c(-c2cccc(Cl)c2)nc2ccccc2c1C(=O)OCC(=O)Nc1ccc2c(c1)OCO2`, the z-score is -0.35.

In turn, `COc1ccnc(N=CNOCc2ccc(C)cc2)c1C#N` displayed a z-score of 1.13.

For the compound `COc1ccccc1-n1cnc(N)c1C(=O)c1ccccc1`, the z-score is -0.974.

Turning to `CCC(Oc1ccccc1)C(=O)O/N=C(\N)c1ccc(OC)c(OC)c1` (stereo not drawn), the z-score was determined as 0.297.

As for `CCOc1ccc(N2C(=O)c3ccccc3C2O)cc1` (stereo not drawn), the z-score is active: 8.14.

Regarding `C/C(=N\NC(=O)CCn1nc(C)cc1C)C(C)(C)C`, the z-score was -0.219.

As to `Cc1cc(Br)ccc1OCc1nc(-c2cccnc2)no1`, the z-score stood at 0.725.

As to `CC(=O)Nc1ccc(S(=O)(=O)NCCNC(=O)c2ccccc2F)cc1`, the z-score was determined as 0.374.
